Changes are numbered by the printed parent chain; changes in the protein carry UniProt numbers. This is one part of the list.

Drawing on PMC9911399, “Two distinct binding modes provide the RNA-binding protein RbFox with extraordinary sequence specificity”, this text covers binding signal for 20 molecules.

To fix the notation:
T1: RBFOX1 RRM (Homo sapiens, UniProt Q9NWB1 109-208)
T1 sequence: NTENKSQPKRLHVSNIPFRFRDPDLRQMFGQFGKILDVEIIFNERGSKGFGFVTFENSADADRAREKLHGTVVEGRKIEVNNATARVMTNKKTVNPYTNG

B1: CGGGGAC (DNA:RNA)
RNA: GGGAGACCGGAAUUCAGAUUGUCCCGGGGACUUAAAUCCCGUCGUAGCCACCA
DNA 1: CAATCTGAATTCCGGTCTCCC
DNA 2: TGGTGGCTACGACGGGATT
B2: CUUACAC (DNA:RNA)
RNA: B1 RNA with G26U, G27U, G28A, G29C
DNA 1: CAATCTGAATTCCGGTCTCCC
DNA 2: TGGTGGCTACGACGGGATT
B3: UGAUAUA (DNA:RNA)
RNA: B1 RNA with C25U, G27A, G28U, G29A, A30U, C31A
DNA 1: CAATCTGAATTCCGGTCTCCC
DNA 2: TGGTGGCTACGACGGGATT
B4: AUUACGU (DNA:RNA)
RNA: GGGAGACCGGAAUUCAGAUUGUCCAUUACGUUUAAAUCCCGUCGUAGCCACCA
DNA 1: CAATCTGAATTCCGGTCTCCC
DNA 2: TGGTGGCTACGACGGGATT
B5: CAGCGUA (DNA:RNA)
RNA: B1 RNA with G26A, G28C, A30U, C31A
DNA 1: CAATCTGAATTCCGGTCTCCC
DNA 2: TGGTGGCTACGACGGGATT
B6: GACCGCU (DNA:RNA)
RNA: B4 RNA with A25G, U26A, U27C, A28C, C29G, G30C
DNA 1: CAATCTGAATTCCGGTCTCCC
DNA 2: TGGTGGCTACGACGGGATT
B7: ACCCUGU (DNA:RNA)
RNA: B4 RNA with U26C, U27C, A28C, C29U
DNA 1: CAATCTGAATTCCGGTCTCCC
DNA 2: TGGTGGCTACGACGGGATT
B8: UUGAGUA (DNA:RNA)
RNA: B4 RNA with A25U, U27G, C29G, G30U, U31A
DNA 1: CAATCTGAATTCCGGTCTCCC
DNA 2: TGGTGGCTACGACGGGATT
B9: GGUACGC (DNA:RNA)
RNA: B4 RNA with A25G, U26G, U31C
DNA 1: CAATCTGAATTCCGGTCTCCC
DNA 2: TGGTGGCTACGACGGGATT
B10: GGCUACG (DNA:RNA)
RNA: B1 RNA with C25G, G27C, G28U, G29A, A30C, C31G
DNA 1: CAATCTGAATTCCGGTCTCCC
DNA 2: TGGTGGCTACGACGGGATT
B11: UCAACCG (DNA:RNA)
RNA: B4 RNA with A25U, U26C, U27A, G30C, U31G
DNA 1: CAATCTGAATTCCGGTCTCCC
DNA 2: TGGTGGCTACGACGGGATT
B12: GGCCGCC (DNA:RNA)
RNA: B1 RNA with C25G, G27C, G28C, A30C
DNA 1: CAATCTGAATTCCGGTCTCCC
DNA 2: TGGTGGCTACGACGGGATT
B13: GGCAAGA (DNA:RNA)
RNA: B4 RNA with A25G, U26G, U27C, C29A, U31A
DNA 1: CAATCTGAATTCCGGTCTCCC
DNA 2: TGGTGGCTACGACGGGATT
B14: GCUACCU (DNA:RNA)
RNA: B4 RNA with A25G, U26C, G30C
DNA 1: CAATCTGAATTCCGGTCTCCC
DNA 2: TGGTGGCTACGACGGGATT
B15: CACGUGU (DNA:RNA)
RNA: B4 RNA with A25C, U26A, U27C, A28G, C29U
DNA 1: CAATCTGAATTCCGGTCTCCC
DNA 2: TGGTGGCTACGACGGGATT
B16: UUUGCAA (DNA:RNA)
RNA: B4 RNA with A25U, A28G, G30A, U31A
DNA 1: CAATCTGAATTCCGGTCTCCC
DNA 2: TGGTGGCTACGACGGGATT
B17: GUAUGGG (DNA:RNA)
RNA: B4 RNA with A25G, U27A, A28U, C29G, U31G
DNA 1: CAATCTGAATTCCGGTCTCCC
DNA 2: TGGTGGCTACGACGGGATT
B18: GUUCGGC (DNA:RNA)
RNA: B4 RNA with A25G, A28C, C29G, U31C
DNA 1: CAATCTGAATTCCGGTCTCCC
DNA 2: TGGTGGCTACGACGGGATT
B19: UUAGUGA (DNA:RNA)
RNA: B4 RNA with A25U, U27A, A28G, C29U, U31A
DNA 1: CAATCTGAATTCCGGTCTCCC
DNA 2: TGGTGGCTACGACGGGATT
B20: CUUCUGG (DNA:RNA)
RNA: B4 RNA with A25C, A28C, C29U, U31G
DNA 1: CAATCTGAATTCCGGTCTCCC
DNA 2: TGGTGGCTACGACGGGATT

This assay has as its target T1, RBFOX1 RRM. Put plainly: EMSA; HiTS-Eq, 1 nM pool, 10 min; buffer printed only for the single-RNA assays: 10 mM Tris pH 7.5, 150 mM NaCl, 3.4 mM EDTA, 0.001% NP-40, 30 C. The settings on record: tags: His6 N-terminal (pET28a); label: 5' 32P. The method in brief: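 A pool of RNA with 7 randomized nucleotides, 5′-radiolabelled and with DNA-annealed flanks, was equilibrated at 1 nM for 10 min in 50 µL with purified RbFox RRM, wild type or mutant, across increasing protein concentrations. Free RNA was separated by 8% native PAGE, excised, reverse-transcribed, barcoded by PCR and sequenced. Relative association constants were obtained from read-count changes of each RNA species versus the control reaction and normalised to the cognate motif.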
In the case of B1, the binding signal is 0.0143 KA relative to UGCAUGU.
With B2 the figure was 0.00166 KA relative to UGCAUGU; with B3, 0.0076 KA relative to UGCAUGU.
With B4 the figure was 0.00906 KA relative to UGCAUGU; with B5, 0.00468 KA relative to UGCAUGU.
With B6 the figure was 0.0117 KA relative to UGCAUGU.
As to B7, the binding signal is 0.00514 KA relative to UGCAUGU.
With B8 the figure was 0.0152 KA relative to UGCAUGU; with B9, 0.0185 KA relative to UGCAUGU; with B10, 0.0271 KA relative to UGCAUGU.
The same measure for B11: 0.000694 KA relative to UGCAUGU.
With B12, the binding signal was 0.0087 KA relative to UGCAUGU.
With B13 the figure was 0.0132 KA relative to UGCAUGU; with B14, 0.00981 KA relative to UGCAUGU.
On to B15, for which the binding signal is 0.0106 KA relative to UGCAUGU.
As for B16, the binding signal is 0.0114 KA relative to UGCAUGU.
As to B17, the binding signal is 0.00944 KA relative to UGCAUGU.
Take B18: the binding signal was 0.0143 KA relative to UGCAUGU.
With B19 the figure was 0.00774 KA relative to UGCAUGU.
The same measure for B20: 0.0102 KA relative to UGCAUGU.
